Results taken from PMC9911399, “Two distinct binding modes provide the RNA-binding protein RbFox with extraordinary sequence specificity”.
Substitutions are numbered along the chain they refer to; changes in the protein carry UniProt numbers. Some of the results follow.

T1: RBFOX1 RRM (Homo sapiens, UniProt Q9NWB1 109-208)
T1 sequence: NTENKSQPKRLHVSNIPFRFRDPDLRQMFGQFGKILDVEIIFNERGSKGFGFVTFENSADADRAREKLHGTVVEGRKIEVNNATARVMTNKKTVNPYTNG

B1: AGUGGCG (DNA:RNA)
RNA: GGGAGACCGGAAUUCAGAUUGUCCAGUGGCGUUAAAUCCCGUCGUAGCCACCA
DNA 1: CAATCTGAATTCCGGTCTCCC
DNA 2: TGGTGGCTACGACGGGATT
B2: UAUCAAA (DNA:RNA)
RNA: B1 RNA with A25U, G26A, G28C, G29A, C30A, G31A
DNA 1: CAATCTGAATTCCGGTCTCCC
DNA 2: TGGTGGCTACGACGGGATT
B3: GAACGCC (DNA:RNA)
RNA: B1 RNA with A25G, G26A, U27A, G28C, G31C
DNA 1: CAATCTGAATTCCGGTCTCCC
DNA 2: TGGTGGCTACGACGGGATT
B4: GCUAAAU (DNA:RNA)
RNA: B1 RNA with A25G, G26C, G28A, G29A, C30A, G31U
DNA 1: CAATCTGAATTCCGGTCTCCC
DNA 2: TGGTGGCTACGACGGGATT
B5: GCUGAAA (DNA:RNA)
RNA: B1 RNA with A25G, G26C, G29A, C30A, G31A
DNA 1: CAATCTGAATTCCGGTCTCCC
DNA 2: TGGTGGCTACGACGGGATT
B6: CGAACUG (DNA:RNA)
RNA: B1 RNA with A25C, U27A, G28A, G29C, C30U
DNA 1: CAATCTGAATTCCGGTCTCCC
DNA 2: TGGTGGCTACGACGGGATT
B7: CAGAGUU (DNA:RNA)
RNA: B1 RNA with A25C, G26A, U27G, G28A, C30U, G31U
DNA 1: CAATCTGAATTCCGGTCTCCC
DNA 2: TGGTGGCTACGACGGGATT
B8: ACCCAGG (DNA:RNA)
RNA: B1 RNA with G26C, U27C, G28C, G29A, C30G
DNA 1: CAATCTGAATTCCGGTCTCCC
DNA 2: TGGTGGCTACGACGGGATT
B9: CGAACUU (DNA:RNA)
RNA: B1 RNA with A25C, U27A, G28A, G29C, C30U, G31U
DNA 1: CAATCTGAATTCCGGTCTCCC
DNA 2: TGGTGGCTACGACGGGATT
B10: CGACUAU (DNA:RNA)
RNA: B1 RNA with A25C, U27A, G28C, G29U, C30A, G31U
DNA 1: CAATCTGAATTCCGGTCTCCC
DNA 2: TGGTGGCTACGACGGGATT
B11: GGCAUUU (DNA:RNA)
RNA: B1 RNA with A25G, U27C, G28A, G29U, C30U, G31U
DNA 1: CAATCTGAATTCCGGTCTCCC
DNA 2: TGGTGGCTACGACGGGATT
B12: UCGUCUG (DNA:RNA)
RNA: B1 RNA with A25U, G26C, U27G, G28U, G29C, C30U
DNA 1: CAATCTGAATTCCGGTCTCCC
DNA 2: TGGTGGCTACGACGGGATT
B13: UUAGGCC (DNA:RNA)
RNA: B1 RNA with A25U, G26U, U27A, G31C
DNA 1: CAATCTGAATTCCGGTCTCCC
DNA 2: TGGTGGCTACGACGGGATT
B14: GCGAGUG (DNA:RNA)
RNA: B1 RNA with A25G, G26C, U27G, G28A, C30U
DNA 1: CAATCTGAATTCCGGTCTCCC
DNA 2: TGGTGGCTACGACGGGATT
B15: UCGCCGG (DNA:RNA)
RNA: B1 RNA with A25U, G26C, U27G, G28C, G29C, C30G
DNA 1: CAATCTGAATTCCGGTCTCCC
DNA 2: TGGTGGCTACGACGGGATT
B16: GAUGCAG (DNA:RNA)
RNA: B1 RNA with A25G, G26A, G29C, C30A
DNA 1: CAATCTGAATTCCGGTCTCCC
DNA 2: TGGTGGCTACGACGGGATT
B17: UCCGUAG (DNA:RNA)
RNA: B1 RNA with A25U, G26C, U27C, G29U, C30A
DNA 1: CAATCTGAATTCCGGTCTCCC
DNA 2: TGGTGGCTACGACGGGATT
B18: CCAGGAC (DNA:RNA)
RNA: B1 RNA with A25C, G26C, U27A, C30A, G31C
DNA 1: CAATCTGAATTCCGGTCTCCC
DNA 2: TGGTGGCTACGACGGGATT
B19: GCUCUUA (DNA:RNA)
RNA: B1 RNA with A25G, G26C, G28C, G29U, C30U, G31A
DNA 1: CAATCTGAATTCCGGTCTCCC
DNA 2: TGGTGGCTACGACGGGATT
B20: UUACAAG (DNA:RNA)
RNA: B1 RNA with A25U, G26U, U27A, G28C, G29A, C30A
DNA 1: CAATCTGAATTCCGGTCTCCC
DNA 2: TGGTGGCTACGACGGGATT
B21: ACGCAGC (DNA:RNA)
RNA: B1 RNA with G26C, U27G, G28C, G29A, C30G, G31C
DNA 1: CAATCTGAATTCCGGTCTCCC
DNA 2: TGGTGGCTACGACGGGATT
B22: CAUGUUG (DNA:RNA)
RNA: B1 RNA with A25C, G26A, G29U, C30U
DNA 1: CAATCTGAATTCCGGTCTCCC
DNA 2: TGGTGGCTACGACGGGATT
B23: AGCGUGC (DNA:RNA)
RNA: B1 RNA with U27C, G29U, C30G, G31C
DNA 1: CAATCTGAATTCCGGTCTCCC
DNA 2: TGGTGGCTACGACGGGATT
B24: CUCCGUG (DNA:RNA)
RNA: B1 RNA with A25C, G26U, U27C, G28C, C30U
DNA 1: CAATCTGAATTCCGGTCTCCC
DNA 2: TGGTGGCTACGACGGGATT
B25: UCCCCAU (DNA:RNA)
RNA: GGGAGACCGGAAUUCAGAUUGUCCUCCCCAUUUAAAUCCCGUCGUAGCCACCA
DNA 1: CAATCTGAATTCCGGTCTCCC
DNA 2: TGGTGGCTACGACGGGATT
B26: UAGAACA (DNA:RNA)
RNA: B1 RNA with A25U, G26A, U27G, G28A, G29A, G31A
DNA 1: CAATCTGAATTCCGGTCTCCC
DNA 2: TGGTGGCTACGACGGGATT
B27: UCCUCGU (DNA:RNA)
RNA: B25 RNA with C28U, A30G
DNA 1: CAATCTGAATTCCGGTCTCCC
DNA 2: TGGTGGCTACGACGGGATT
B28: CAUUUUG (DNA:RNA)
RNA: B1 RNA with A25C, G26A, G28U, G29U, C30U
DNA 1: CAATCTGAATTCCGGTCTCCC
DNA 2: TGGTGGCTACGACGGGATT
B29: GACGACA (DNA:RNA)
RNA: B1 RNA with A25G, G26A, U27C, G29A, G31A
DNA 1: CAATCTGAATTCCGGTCTCCC
DNA 2: TGGTGGCTACGACGGGATT
B30: UUCGGUA (DNA:RNA)
RNA: B1 RNA with A25U, G26U, U27C, C30U, G31A
DNA 1: CAATCTGAATTCCGGTCTCCC
DNA 2: TGGTGGCTACGACGGGATT
B31: GAUGUUA (DNA:RNA)
RNA: B1 RNA with A25G, G26A, G29U, C30U, G31A
DNA 1: CAATCTGAATTCCGGTCTCCC
DNA 2: TGGTGGCTACGACGGGATT

The binders below were run against T1, RBFOX1 RRM (assay: EMSA; HiTS-Eq, 1 nM pool, 10 min; buffer printed only for the single-RNA assays: 10 mM Tris pH 7.5, 150 mM NaCl, 3.4 mM EDTA, 0.001% NP-40, 30 C). Conditions: tags: His6 N-terminal (pET28a); label: 5' 32P.
Summary of the method: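 A pool of RNA with 7 randomized nucleotides, 5′-radiolabelled and with DNA-annealed flanks, was equilibrated at 1 nM for 10 min in 50 µL with purified RbFox RRM, wild type or mutant, across increasing protein concentrations. Free RNA was separated by 8% native PAGE, excised, reverse-transcribed, barcoded by PCR and sequenced. Relative association constants were obtained from read-count changes of each RNA species versus the control reaction and normalised to the cognate motif.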
For B1, the binding signal was 0.0184 KA relative to UGCAUGU.
With B2 the binding signal was 0.00334 KA relative to UGCAUGU.
In the case of B3, the binding signal is reported as 0.00854 KA relative to UGCAUGU.
For B4, the binding signal was 0.00755 KA relative to UGCAUGU.
B5 was tested, and the binding signal was 0.0131 KA relative to UGCAUGU.
For B6, the binding signal was 0.0156 KA relative to UGCAUGU.
For B7, the binding signal was 0.00743 KA relative to UGCAUGU.
With B8 the binding signal was 0.00495 KA relative to UGCAUGU.
With B9 the binding signal was 0.00603 KA relative to UGCAUGU.
In the case of B10, the binding signal is reported as 0.0034 KA relative to UGCAUGU.
For B11, the binding signal was 0.00992 KA relative to UGCAUGU.
With B12 the binding signal was 0.0174 KA relative to UGCAUGU.
B13 was tested, and the binding signal was 0.0133 KA relative to UGCAUGU.
With B14 the binding signal was 0.0264 KA relative to UGCAUGU.
B15 was tested, and the binding signal was 0.0169 KA relative to UGCAUGU.
In the case of B16, the binding signal is reported as 0.0176 KA relative to UGCAUGU.
B17 was tested, and the binding signal was 0.00757 KA relative to UGCAUGU.
With B18 the binding signal was 0.00714 KA relative to UGCAUGU.
B19 was tested, and the binding signal was 0.00619 KA relative to UGCAUGU.
In the case of B20, the binding signal is reported as 0.00798 KA relative to UGCAUGU.
In the case of B21, the binding signal is reported as 0.00735 KA relative to UGCAUGU.
B22 was tested, and the binding signal was 0.0132 KA relative to UGCAUGU.
For B23, the binding signal was 0.023 KA relative to UGCAUGU.
In the case of B24, the binding signal is reported as 0.0111 KA relative to UGCAUGU.
In the case of B25, the binding signal is reported as 0.000747 KA relative to UGCAUGU.
In the case of B26, the binding signal is reported as 0.00656 KA relative to UGCAUGU.
With B27 the binding signal was 0.00697 KA relative to UGCAUGU.
In the case of B28, the binding signal is reported as 0.0141 KA relative to UGCAUGU.
With B29 the binding signal was 0.00401 KA relative to UGCAUGU.
B30 was tested, and the binding signal was 0.012 KA relative to UGCAUGU.
B31 was tested, and the binding signal was 0.00976 KA relative to UGCAUGU.
